{"source": "the supplement of paper PMC8728848", "binders": {"B1": {"name": "ASA (Allium sativum) (protein)", "chain": "KAHEKERMGRNTPSAKLMSIAAVAAILTILASTCMARNLLTNGEGLYAGQSLNVEPYHFIMQEDCNLVLYDHSTAVWATNTDIPGKKECRAVLQSDGNFVVYDADGRPLWASHSVRGNGNYVLVLQEDGNVVIYGSDIWSTGTYVKAARGPVVVAMNGTVDGGSLIRPVIVNKNHVPVIRKVGTLSRNILRNDEGLYAGQSLDVEPYHFIMHEDCNLVLYDHSTAVWASNTDIPGKKGCKAVLQSDGNFVVYDAEGRSLWASHSVRGNGNYVLVLQEDGNVVIYGSDIWSTDTYRKSARGPVIRKVGTLAGAA"}}, "experiment_in_all_cases": "glycan array binding signal (z-score within array); higher = stronger binding", "conditions_in_all_cases": "glycan notation: IUPAC condensed, linker removed", "key": {"GlcNAc(b1-3)GalNAc": {"target": "GlcNAc(b1-3)GalNAc", "outline": "(§1)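 Glycan array binding is given as a within-array Z-score, which can be read as non-binding when negative. The arrays, 3228 of them, came from the Consortium for Functional Glycomics database and were retained only where the protein sequence was available. Z-scores were averaged across arrays of the same protein sequence at different concentrations or buffers and across linkers.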"}, "[1]": {"target": "GlcNAc(b1-3)[GlcNAc(b1-4)][GlcNAc(b1-6)]GlcNAc", "outline": "as §1"}, "[2]": {"target": "GlcNAc(b1-3)[GlcNAc(b1-6)]Gal(b1-4)GlcNAc", "outline": "as §1"}, "[3]": {"target": "GlcNAc(b1-3)[GlcNAc(b1-6)]GlcNAc", "outline": "as §1"}, "[4]": {"target": "GlcNAc(b1-4)Gal(b1-4)GlcNAc", "outline": "as §1"}, "[5]": {"target": "GlcNAc(b1-4)GlcNAc(b1-4)GlcNAc", "outline": "as §1"}, "[6]": {"target": "GlcNAc(b1-4)GlcNAc(b1-4)GlcNAc(b1-4)GlcNAc(b1-4)GlcNAc", "outline": "as §1"}, "[7]": {"target": "GlcNAc(b1-4)GlcNAc(b1-4)GlcNAc(b1-4)GlcNAc(b1-4)GlcNAc(b1-4)GlcNAc", "outline": "as §1"}, "[8]": {"target": "GlcNAc(b1-4)[GlcNAc(b1-6)]GalNAc", "outline": "as §1"}, "[9]": {"target": "GlcNAc(b1-6)Gal(b1-4)GlcNAc", "outline": "as §1"}, "GlcNAc(b1-6)GalNAc": {"target": "GlcNAc(b1-6)GalNAc", "outline": "as §1"}, "Kdn(a2-3)Gal(b1-3)GlcNAc": {"target": "Kdn(a2-3)Gal(b1-3)GlcNAc", "outline": "as §1"}, "Kdn(a2-3)Gal(b1-4)GlcNAc": {"target": "Kdn(a2-3)Gal(b1-4)GlcNAc", "outline": "as §1"}, "[10]": {"target": "Man(a1-2)Man(a1-2)Man(a1-3)Man", "outline": "as §1"}, "[11]": {"target": "Man(a1-2)Man(a1-2)Man(a1-3)[Man(a1-2)Man(a1-3)[Man(a1-2)Man(a1-6)]Man(a1-6)]Man(b1-4)GlcNAc(b1-4)GlcNAc", "outline": "as §1"}, "[12]": {"target": "Man(a1-2)Man(a1-2)Man(a1-3)[Man(a1-2)Man(a1-6)[Man(a1-3)]Man(a1-6)]Man(b1-4)GlcNAc(b1-4)GlcNAc", "outline": "as §1"}, "[13]": {"target": "Man(a1-2)Man(a1-2)Man(a1-6)[Man(a1-3)]Man", "outline": "as §1"}, "Man(a1-2)Man(a1-3)Man": {"target": "Man(a1-2)Man(a1-3)Man", "outline": "as §1"}, "[14]": {"target": "Man(a1-2)Man(a1-3)[Man(a1-2)Man(a1-6)]Man", "outline": "as §1"}, "[15]": {"target": "Man(a1-2)Man(a1-3)[Man(a1-3)[Man(a1-6)]Man(a1-6)]Man(b1-4)GlcNAc(b1-4)GlcNAc", "outline": "as §1"}, "[16]": {"target": "Man(a1-2)Man(a1-3)[Man(a1-6)]Man(a1-6)[Man(a1-2)Man(a1-3)]Man(b1-4)GlcNAc(b1-4)GlcNAc", "outline": "as §1"}, "Man(a1-3)[Man(a1-6)]Man": {"target": "Man(a1-3)[Man(a1-6)]Man", "outline": "as §1"}, "[17]": {"target": "Man(a1-3)[Man(a1-6)]Man(a1-6)[Man(a1-3)]Man(b1-4)GlcNAc(b1-4)GlcNAc", "outline": "as §1"}, "[18]": {"target": "Man(a1-3)[Man(a1-6)]Man(b1-4)GlcNAc(b1-4)GlcNAc", "outline": "as §1"}, "Man(b1-4)GlcNAc": {"target": "Man(b1-4)GlcNAc", "outline": "as §1"}, "Neu5Ac(a2-3)Gal": {"target": "Neu5Ac(a2-3)Gal", "outline": "as §1"}, "[19]": {"target": "Neu5Ac(a2-3)Gal(b1-3)GalNAc", "outline": "as §1"}, "[20]": {"target": "Neu5Ac(a2-3)Gal(b1-3)GalNAc(b1-3)Gal(a1-4)Gal(b1-4)Glc", "outline": "as §1"}, "[21]": {"target": "Neu5Ac(a2-3)Gal(b1-3)GalNAc(b1-4)[Neu5Ac(a2-3)]Gal(b1-4)Glc", "outline": "as §1"}, "[22]": {"target": "Neu5Ac(a2-3)Gal(b1-3)GalNAc6S", "outline": "as §1"}, "[23]": {"target": "Neu5Ac(a2-3)Gal(b1-3)GlcNAc", "outline": "as §1"}, "[24]": {"target": "Neu5Ac(a2-3)Gal(b1-3)GlcNAc(b1-3)Gal(b1-4)GlcNAc", "outline": "as §1"}, "[25]": {"target": "Neu5Ac(a2-3)Gal(b1-3)GlcNAc6S", "outline": "as §1"}, "[26]": {"target": "Neu5Ac(a2-3)Gal(b1-3)[Fuc(a1-4)]GlcNAc", "outline": "as §1"}, "[27]": {"target": "Neu5Ac(a2-3)Gal(b1-3)[Fuc(a1-4)]GlcNAc(b1-3)Gal(b1-4)[Fuc(a1-3)]GlcNAc", "outline": "as §1"}, "[28]": {"target": "Neu5Ac(a2-3)Gal(b1-3)[Neu5Ac(a2-3)Gal(b1-4)]GlcNAc", "outline": "as §1"}, "[29]": {"target": "Neu5Ac(a2-3)Gal(b1-3)[Neu5Ac(a2-6)]GalNAc", "outline": "as §1"}, "Neu5Ac(a2-3)Gal(b1-4)Glc": {"target": "Neu5Ac(a2-3)Gal(b1-4)Glc", "outline": "as §1"}}, "note": "Some of the results follow.", "data": [{"binder": "B1", "values": [{"measurement": "glycan array binding signal (z-score)", "setting": "GlcNAc(b1-3)GalNAc", "result": -0.234}, {"measurement": "glycan array binding signal (z-score)", "setting": "[1]", "result": -0.115}, {"measurement": "glycan array binding signal (z-score)", "setting": "[2]", "result": -0.227}, {"measurement": "glycan array binding signal (z-score)", "setting": "[3]", "result": -0.175}, {"measurement": "glycan array binding signal (z-score)", "setting": "[4]", "result": -0.221}, {"measurement": "glycan array binding signal (z-score)", "setting": "[5]", "result": -0.19}, {"measurement": "glycan array binding signal (z-score)", "setting": "[6]", "result": -0.207}, {"measurement": "glycan array binding signal (z-score)", "setting": "[7]", "result": -0.185}, {"measurement": "glycan array binding signal (z-score)", "setting": "[8]", "result": -0.223}, {"measurement": "glycan array binding signal (z-score)", "setting": "[9]", "result": -0.21}, {"measurement": "glycan array binding signal (z-score)", "setting": "GlcNAc(b1-6)GalNAc", "result": -0.215}, {"measurement": "glycan array binding signal (z-score)", "setting": "Kdn(a2-3)Gal(b1-3)GlcNAc", "result": -0.223}, {"measurement": "glycan array binding signal (z-score)", "setting": "Kdn(a2-3)Gal(b1-4)GlcNAc", "result": -0.22}, {"measurement": "glycan array binding signal (z-score)", "setting": "[10]", "result": 6.7}, {"measurement": "glycan array binding signal (z-score)", "setting": "[11]", "result": 1.51}, {"measurement": "glycan array binding signal (z-score)", "setting": "[12]", "result": 2.52}, {"measurement": "glycan array binding signal (z-score)", "setting": "[13]", "result": 3.68}, {"measurement": "glycan array binding signal (z-score)", "setting": "Man(a1-2)Man(a1-3)Man", "result": 0.036}, {"measurement": "glycan array binding signal (z-score)", "setting": "[14]", "result": 2.2}, {"measurement": "glycan array binding signal (z-score)", "setting": "[15]", "result": 6.08}, {"measurement": "glycan array binding signal (z-score)", "setting": "[16]", "result": 3.02}, {"measurement": "glycan array binding signal (z-score)", "setting": "Man(a1-3)[Man(a1-6)]Man", "result": 0.312}, {"measurement": "glycan array binding signal (z-score)", "setting": "[17]", "result": 5.45}, {"measurement": "glycan array binding signal (z-score)", "setting": "[18]", "result": 6.64}, {"measurement": "glycan array binding signal (z-score)", "setting": "Man(b1-4)GlcNAc", "result": -0.218}, {"measurement": "glycan array binding signal (z-score)", "setting": "Neu5Ac(a2-3)Gal", "result": -0.215}, {"measurement": "glycan array binding signal (z-score)", "setting": "[19]", "result": -0.201}, {"measurement": "glycan array binding signal (z-score)", "setting": "[20]", "result": -0.228}, {"measurement": "glycan array binding signal (z-score)", "setting": "[21]", "result": -0.11}, {"measurement": "glycan array binding signal (z-score)", "setting": "[22]", "result": -0.226}, {"measurement": "glycan array binding signal (z-score)", "setting": "[23]", "result": -0.223}, {"measurement": "glycan array binding signal (z-score)", "setting": "[24]", "result": -0.215}, {"measurement": "glycan array binding signal (z-score)", "setting": "[25]", "result": -0.222}, {"measurement": "glycan array binding signal (z-score)", "setting": "[26]", "result": -0.235}, {"measurement": "glycan array binding signal (z-score)", "setting": "[27]", "result": 0.083}, {"measurement": "glycan array binding signal (z-score)", "setting": "[28]", "result": -0.226}, {"measurement": "glycan array binding signal (z-score)", "setting": "[29]", "result": -0.235}, {"measurement": "glycan array binding signal (z-score)", "setting": "Neu5Ac(a2-3)Gal(b1-4)Glc", "result": -0.221}]}]}
